Results from publication PMC8508116.
No constants are given. Whether binding was seen depends on the method and setting. Binding seen in cells or lysates may run through a third protein. Some entries that bind do so weakly or less than the wild type. Tags and fused reporters may be left off the sequences shown.

Protein sequences, listed by entry. Tags and fused reporters are not part of them.
UniProt O60346: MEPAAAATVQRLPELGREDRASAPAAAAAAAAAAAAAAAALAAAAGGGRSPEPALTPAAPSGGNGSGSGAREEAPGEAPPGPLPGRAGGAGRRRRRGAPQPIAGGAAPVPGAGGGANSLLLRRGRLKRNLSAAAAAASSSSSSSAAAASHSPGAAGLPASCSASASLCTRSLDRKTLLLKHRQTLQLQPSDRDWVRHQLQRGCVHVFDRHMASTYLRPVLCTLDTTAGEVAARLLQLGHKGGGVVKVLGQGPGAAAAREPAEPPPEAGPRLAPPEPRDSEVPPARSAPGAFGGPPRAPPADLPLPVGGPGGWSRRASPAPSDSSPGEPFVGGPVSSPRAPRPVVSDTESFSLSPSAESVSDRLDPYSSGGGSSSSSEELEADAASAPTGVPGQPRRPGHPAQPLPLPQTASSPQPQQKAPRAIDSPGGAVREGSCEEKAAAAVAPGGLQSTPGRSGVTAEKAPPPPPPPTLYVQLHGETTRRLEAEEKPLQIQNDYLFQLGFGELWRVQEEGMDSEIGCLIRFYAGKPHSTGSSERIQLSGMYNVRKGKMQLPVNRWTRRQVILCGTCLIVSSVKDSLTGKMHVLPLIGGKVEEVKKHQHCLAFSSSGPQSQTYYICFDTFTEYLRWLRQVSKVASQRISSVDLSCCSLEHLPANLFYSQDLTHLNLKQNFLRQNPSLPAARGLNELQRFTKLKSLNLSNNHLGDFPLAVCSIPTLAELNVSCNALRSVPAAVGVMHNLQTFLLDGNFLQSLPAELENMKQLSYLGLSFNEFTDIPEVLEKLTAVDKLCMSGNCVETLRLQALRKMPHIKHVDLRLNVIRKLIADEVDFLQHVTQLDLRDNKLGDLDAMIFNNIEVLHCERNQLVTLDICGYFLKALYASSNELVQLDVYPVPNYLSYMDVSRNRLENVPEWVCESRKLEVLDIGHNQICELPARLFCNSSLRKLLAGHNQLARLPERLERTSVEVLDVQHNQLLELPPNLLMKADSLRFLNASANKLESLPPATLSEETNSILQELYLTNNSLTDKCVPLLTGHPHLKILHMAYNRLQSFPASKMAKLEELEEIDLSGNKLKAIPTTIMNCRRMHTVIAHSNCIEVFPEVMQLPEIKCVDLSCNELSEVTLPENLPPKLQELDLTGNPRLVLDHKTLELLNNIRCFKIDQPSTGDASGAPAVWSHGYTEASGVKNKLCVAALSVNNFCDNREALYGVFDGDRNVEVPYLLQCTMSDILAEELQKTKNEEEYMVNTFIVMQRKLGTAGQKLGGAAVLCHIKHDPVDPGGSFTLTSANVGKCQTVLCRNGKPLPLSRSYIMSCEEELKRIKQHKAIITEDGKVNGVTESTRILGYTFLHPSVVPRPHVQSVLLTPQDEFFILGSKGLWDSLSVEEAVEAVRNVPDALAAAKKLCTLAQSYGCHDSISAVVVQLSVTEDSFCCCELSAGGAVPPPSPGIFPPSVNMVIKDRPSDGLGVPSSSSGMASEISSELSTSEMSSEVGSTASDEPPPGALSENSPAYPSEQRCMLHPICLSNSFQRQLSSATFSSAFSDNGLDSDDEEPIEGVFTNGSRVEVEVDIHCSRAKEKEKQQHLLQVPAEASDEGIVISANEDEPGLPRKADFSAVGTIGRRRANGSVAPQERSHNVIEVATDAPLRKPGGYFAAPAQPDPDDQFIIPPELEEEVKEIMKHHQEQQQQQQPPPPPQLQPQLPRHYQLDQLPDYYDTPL
UniProt Q96PU5: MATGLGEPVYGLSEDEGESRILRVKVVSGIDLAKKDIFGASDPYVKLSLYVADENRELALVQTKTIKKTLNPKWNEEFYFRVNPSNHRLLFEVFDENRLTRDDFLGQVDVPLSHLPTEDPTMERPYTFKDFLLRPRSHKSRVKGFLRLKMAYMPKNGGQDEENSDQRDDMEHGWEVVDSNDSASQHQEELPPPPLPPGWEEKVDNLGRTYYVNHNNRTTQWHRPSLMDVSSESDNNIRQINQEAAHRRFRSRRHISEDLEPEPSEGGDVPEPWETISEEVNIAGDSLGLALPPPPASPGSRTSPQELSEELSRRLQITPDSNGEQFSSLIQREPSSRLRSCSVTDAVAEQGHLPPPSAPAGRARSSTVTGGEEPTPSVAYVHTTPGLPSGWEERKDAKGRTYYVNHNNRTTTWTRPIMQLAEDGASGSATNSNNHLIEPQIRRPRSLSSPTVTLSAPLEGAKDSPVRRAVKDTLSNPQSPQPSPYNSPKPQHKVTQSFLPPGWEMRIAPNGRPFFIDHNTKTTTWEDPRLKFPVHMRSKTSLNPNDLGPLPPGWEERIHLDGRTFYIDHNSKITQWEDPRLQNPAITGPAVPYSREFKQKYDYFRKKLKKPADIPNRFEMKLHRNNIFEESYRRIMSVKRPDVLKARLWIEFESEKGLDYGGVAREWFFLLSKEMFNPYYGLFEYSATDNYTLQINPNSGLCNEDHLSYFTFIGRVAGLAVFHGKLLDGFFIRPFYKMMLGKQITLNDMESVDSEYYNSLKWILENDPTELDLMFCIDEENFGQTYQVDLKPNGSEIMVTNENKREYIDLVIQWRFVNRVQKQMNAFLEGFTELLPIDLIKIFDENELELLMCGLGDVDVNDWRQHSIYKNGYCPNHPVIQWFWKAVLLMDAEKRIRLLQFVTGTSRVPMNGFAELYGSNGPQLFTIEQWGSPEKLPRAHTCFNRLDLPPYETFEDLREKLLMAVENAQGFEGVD

B1: Transmembrane prostate androgen-induced protein (TMEPAI) isoform A, wild type, V5-tagged (protein, UniProt Q969W9 1-287)
chain: MHRLMGVNSTAAAAAGQPNVSCTCNCKRSLFQSMEITELEFVQIIIIVVVMMVMVVVITCLLSHYKLSARSFISRHSQGRRREDALSSEGCLWPSESTVSGNGIPEPQVYAPPRPTDRLAVPPFAQRERFHRFQPTYPYLQHEIDLPPTISLSDGEEPPPYQGPCTLQLRDPEQQLELNRESVRAPPNRTIFDSDLMDSARLGGPCPPSSNSGISATCYGSGGRMEGPPPTYSEVIGHYPGSSFQHQQSSGPPSLLEGTRLHHTHIAPLESAAIWSKEKDKQKGHPL
B2: TMEPAI isoform A SIM 4A mutant (PPNR186-189 to AAAA) (protein, UniProt Q969W9 1-287)
chain: MHRLMGVNSTAAAAAGQPNVSCTCNCKRSLFQSMEITELEFVQIIIIVVVMMVMVVVITCLLSHYKLSARSFISRHSQGRRREDALSSEGCLWPSESTVSGNGIPEPQVYAPPRPTDRLAVPPFAQRERFHRFQPTYPYLQHEIDLPPTISLSDGEEPPPYQGPCTLQLRDPEQQLELNRESVRAAAAATIFDSDLMDSARLGGPCPPSSNSGISATCYGSGGRMEGPPPTYSEVIGHYPGSSFQHQQSSGPPSLLEGTRLHHTHIAPLESAAIWSKEKDKQKGHPL
B3: TMEPAI isoform A SIM P186A mutant (protein, UniProt Q969W9 1-287)
chain: MHRLMGVNSTAAAAAGQPNVSCTCNCKRSLFQSMEITELEFVQIIIIVVVMMVMVVVITCLLSHYKLSARSFISRHSQGRRREDALSSEGCLWPSESTVSGNGIPEPQVYAPPRPTDRLAVPPFAQRERFHRFQPTYPYLQHEIDLPPTISLSDGEEPPPYQGPCTLQLRDPEQQLELNRESVRAAPNRTIFDSDLMDSARLGGPCPPSSNSGISATCYGSGGRMEGPPPTYSEVIGHYPGSSFQHQQSSGPPSLLEGTRLHHTHIAPLESAAIWSKEKDKQKGHPL
B4: TMEPAI isoform A double PY motif mutant (Y161A, Y232A) (protein, UniProt Q969W9 1-287)
chain: MHRLMGVNSTAAAAAGQPNVSCTCNCKRSLFQSMEITELEFVQIIIIVVVMMVMVVVITCLLSHYKLSARSFISRHSQGRRREDALSSEGCLWPSESTVSGNGIPEPQVYAPPRPTDRLAVPPFAQRERFHRFQPTYPYLQHEIDLPPTISLSDGEEPPPAQGPCTLQLRDPEQQLELNRESVRAPPNRTIFDSDLMDSARLGGPCPPSSNSGISATCYGSGGRMEGPPPTASEVIGHYPGSSFQHQQSSGPPSLLEGTRLHHTHIAPLESAAIWSKEKDKQKGHPL

These molecules were tested against Pleckstrin homology (PH) domain and leucine-rich repeat protein phosphatase 1 (PHLPP1) (UniProt O60346) (assay: co-IP; HEK-293T cells transfected with the indicated plasmids; lysates in TNE buffer (10 mM Tris pH 7.4, 150 mM NaCl, 1 mM EDTA, 1% NP-40) with protease and phosphatase inhibitors; indicated antibodies overnight at 4 °C, protein G or A beads 50 min; MG132 present for NEDD4-2/PHLPP1 and …; increasing amounts of TMEPAI-V5 in Figure 7F).
B1 was tested, and the binding was “no binding”.

What follows are molecules tested against NEDD4-2, an E3 ubiquitin ligase (UniProt Q96PU5) in the same assay as above.
With “Pleckstrin homology (PH) domain and leucine-rich repeat protein phosphatase 1 (PHLPP1) (from UniProt O60346 1-1717) (enzyme)” the binding was “binds”. B1 was tested, and the binding was “binds”. B2 was tested, and the binding was “binds”. For B3, the binding was “binds”. With B4 the binding was “no binding”.
